This is one part of the list.

The subject of this test is PfAP2-HC AP2 domain (GST-tagged). Briefly: gcPBM binding intensity (ln(normalized median fluorescence intensity)); higher = stronger DNA binding. A digest of the protocol:
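Alexa488 anti-GST antibody, scanned at 488 nm, detected GST-tagged P. falciparum DNA-binding domains that had been expressed in E. coli and incubated for 1 h on an Agilent 4 × 180k array. The array carried primer-extended double-stranded 36-bp intergenic genomic probes and negative controls. Binding intensity is the highest Masliner-normalised natural-log median intensity across replicate spots of either orientation of each probe.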
As for “AATGTAATATAAATATGTACATATAAACTATATATA [XGTACX_site6871]”, the “gcPBM binding intensity (ln)” value is 9.81.
On to “ACTTATGATTTATTTTGTACATATATACTATTCCTG [XGTACX_site5275]”, for which the “gcPBM binding intensity (ln)” value amounted to 9.94.
As for “GTTTTAAAACAAATATGTACACATAATATAGGAAAG [XGTACX_site1803]”, the “gcPBM binding intensity (ln)” value was determined as 9.88.
For “TCAAGAATTTTAAAGAGTACATAAAACAATAATATA [XGTACX_site3923]”, the “gcPBM binding intensity (ln)” value stood at 9.53.
As to “CAAAAATAACGAGTCAAACACACATATATATATATA [CACACA_site2038]”, the “gcPBM binding intensity (ln)” value is 9.83.
To “AAAGGGATAACACCAAAAAAAATAAAAATAAAAATA [GTGCAC_negctrl_site680]” belongs 9.76.
Turning to “CAACACTTTCAAAAATGTACGTACAAATGTATTTTA [XGTACX_site6713]”, the “gcPBM binding intensity (ln)” value turned out to be 9.64.
With “AGTTTCCATATGAGGTGTACATATATAATTTATTAT [XGTACX_site2369]”, the “gcPBM binding intensity (ln)” value came out at 10.1.
Take “ACAAAATAAAGACACACACACAAACACAAAAAAATA [CACACA_site7568]”: the “gcPBM binding intensity (ln)” value was 10.6.
Then “ATGCGTATACTAAGAACACACAAGTTACTTGGTGTT [CACACA_site1625]”, with 9.72; and “ATTAATGATTTTTGTTGTACATTATTAATTTACATT [XGTACX_site544]”, with 9.73.
To “TATTTTATATTTCATTTGTTATTTTTCTTGGTTCTA [CACACA_negctrl_site33]” belongs 9.71; to “CATACATACATACATACACACATACATATGTATTTA [CACACA_site5384]”, 9.99.
To “AAAATATAATATATTGCACACAAAAAGTGAATTATT [CACACA_site8489]” belongs 9.92; to “TACCATTATTTTAAGTGTACATACTAATTTATATAT [XGTACX_site6548]”, 9.79.
On to “TCTTTCTATTTATAATGTACTCAAAATTATTCTATA [XGTACX_site4867]”, for which the “gcPBM binding intensity (ln)” value amounted to 9.59.
Consider “AAATTGTGTGAAATATATTAATATTATTATTATTAT [TGCATGCA_negctrl_site189]”, for which the “gcPBM binding intensity (ln)” value turned out to be 9.63.
On to “TTTTACCACTAAAAATGTACAAAAAAAAAAAAAAAA [XGTACX_site4226]”, for which the “gcPBM binding intensity (ln)” value is 8.91.
Then “CCTTGCATTTATTATACACACACAAAAAAATATATA [CACACA_site7964]”, with 9.86; and “TATGCACCCAGACACACACACACAACTAAAAAATAA [CACACA_site2567]”, with 10.5; and “TTTGTAGATTTTGTAACACACACATATATATACATA [CACACA_site8757]”, with 10.
As for “TTGCAAATATATGGTTGTACTCAAAAAAAAAAAAAA [XGTACX_site6975]”, the “gcPBM binding intensity (ln)” value stood at 9.17.
To “ATAACAAAATAAAACACACACACAAATGTACATATA [CACACA_site2425]” belongs 10.4; to “CATATACACCAACACACACACACACCCACAAAAAAA [CACACA_site496]”, 11.3.
Then “AAATAAATAATTTAATGTACATATATAATATATATA [XGTACX_site1831]”, with 9.55; and “TATTTTTCCATATGCACACACACCGTATATATAATA [CACACA_site1127]”, with 10.7.
On to “AATAAAAAAATAGAAACACACATTAAAAAAAATAAA [CACACA_site1333]”, for which the “gcPBM binding intensity (ln)” value came to 10.1.
On to “ATGATATATAGACACACACACATATTTATATACATT [CACACA_site6404]”, for which the “gcPBM binding intensity (ln)” value is 10.9.
On to “TAAATAAAGTATAATGCATGCTATTATAATATTAAT [TGCATGCA_site825]”, for which the “gcPBM binding intensity (ln)” value was determined as 9.74.
For the sequence “CACTTTATACGTAATTGTACTTTTTCTTTTTTTTAT [XGTACX_site3175]”, the “gcPBM binding intensity (ln)” value is 9.83.
To “ACTTACTAATTAATGGGTACATACACACATATATAC [XGTACX_site1362]” belongs 9.95.
As for “TATTCAAAGAAAGACAGTACGTGTAGCAAACAACCT [XGTACX_site4218]”, the “gcPBM binding intensity (ln)” value was 9.86.
Then “ATTTTTTTTTTTTTTTTTTTTTTTTAGATTAAGAAA [CACACA_negctrl_site1272]”, with 9.16.
To “AAATAAAATAAAATAAAATAAAATTCTTTGATACCT [TGCATGCA_negctrl_site604]” belongs 9.61; to “TATAATTATTTTTTTCTAAATATTATAAGGTATTCA [GTGCAC_negctrl_site205]”, 9.34.
Then “TACATATAATATATTGCACACGTCAGAATAATATAG [CACACA_site1744]”, with 9.75.
Turning to TAATAGAATATGATGGTGCAGCAGTCTTATTTTTCA, the “gcPBM binding intensity (ln)” value is 9.61.
To “TTTCTTTCTTCACATATATATATATATATATTTATA [TGCATGCA_negctrl_site341]” belongs 9.84; to “TTAGCCATTAATTCTCTACACACCTTTATGTTATTT [CACACA_site9212]”, 9.97; to “TTTTATAATATTTAAAGTACATTCTAAAAATATAAT [XGTACX_site8033]”, 9.4.
For “CCCCCCCACGGACACACACACATACATACCACATAT [CACACA_site5303]”, the “gcPBM binding intensity (ln)” value amounted to 11.3.
To “TATTAAACGAAACACACACACACACCCATATATAAA [CACACA_site759]” belongs 11.5.
To “AAAAAGAATGTGAACACACACATTGAATCTAATTTA [CACACA_site6711]” belongs 9.89; to “AGATGATATATTATATATCCTTTTAATAAATGTAAT [CACACA_negctrl_site730]”, 9.48; to “ACATATAATATATATATATATATATATATATATAAT [GTGCAC_negctrl_site648]”, 9.5.
On to “TATATAAAAAATTCAATACACACCATATATAAATAT [CACACA_site3987]”, for which the “gcPBM binding intensity (ln)” value was found to be 10.2.
Then TATTCATATTTAAAGGTGCAATATTTATTTTGTACA, with 9.47.
Then “TATTCTAATTTTTAAACACACAAATATAAATAAGTA [CACACA_site3149]”, with 9.52; and “CTATTTATTATATATACATGCATATATATATTAATA [TGCATGCA_site527]”, with 9.38; and “TAAAAATGTGTATGTACACACTTTATTTTTAATACA [CACACA_site7235]”, with 9.69.
To “AAAAAAAAAAAAATAGGTACGTAAATATTTCTTTAA [XGTACX_site6423]” belongs 9.56.
For “TCTTTTAGTTTTATCCACATAATAAAAAGCAAAAAA [GTGCAC_negctrl_site368]”, the “gcPBM binding intensity (ln)” value was 9.42.
To “TATTCTTCAATTTAAAGTACAAAAATTACTATACTT [XGTACX_site6599]” belongs 9.41.
To “AAAAAAAAAAAAAAGAGTACTTTTTTCTCATTACTA [XGTACX_site8353]” belongs 9.39.
In the case of “ATTGTGGCAATATATTGTACATGTAATATAAATATA [XGTACX_site5415]”, the “gcPBM binding intensity (ln)” value worked out at 9.75.
On to “AATTAAAATATATATATACACACGTAATTATATATA [CACACA_site3819]”, for which the “gcPBM binding intensity (ln)” value was determined as 9.67.

These data come from the supplement of paper PMC11417369.
